# Experimental data as given in PubChem BioAssay (NCATS).
# Where “and” joins values, the source holds several entries; their conditions need not be identical. Equal entries are not always repeated. The shares of active, inactive and inconclusive entries below differ from those in the screen. For some of these results: A potency beside an inconclusive call is a rough fit, not a confirmed value. Calls of active or inactive are those of the source. Unless noted, calls follow the shape of the dose curve; as a rule, active = well fitted curve in the direction sought with a large enough effect; inconclusive = small, poorly fitted or top-dose-only effect, or another doubt; inactive = no such curve, though single readings can be large; an effect the other way counts as inactive or inconclusive.
# Experiments:
# [1] = Primary qHTS to identify inhibitors of SARS-CoV-2 cell entry (AID 1645846; calls by dose curve; also: nearly all actives have a fitted effect of over 45% in size)
# Outline: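 Luminescence readout (Bright-Glo luciferase) 48 h after pseudoparticle addition. HEK293-ACE2 cells, 1500/well; compound pre-incubation 1 h; Normalized to spike PP and bald PP.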
# [2] = Primary qHTS for inhibitors of nuclear receptor binding SET domain protein 2 (NSD2) in an isogenic RCH-ACV NSD2 p.E1099K mutant (9B) (AID 1645876); also: nearly all actives have a fitted effect of over 70% in size
# [3] = Primary qHTS for inhibitors of nuclear receptor binding SET domain protein 2 (NSD2) in an RCH-ACV wild type WT cells (2C) (AID 1645877); also: nearly all actives have a fitted effect of over 70% in size
# [4] = target: Rap guanine nucleotide exchange factor 3 (Homo sapiens) (UniProt O95398); experiment: Confirmatory qHTS for antagonist of cAMP-regulated guanine nucleotide exchange factor 3 (EPAC1) (AID 1645880); also: nearly all actives have a fitted effect of over 55% in size
# Sequence of UniProt O95398 (O95398 whole entry, looked up): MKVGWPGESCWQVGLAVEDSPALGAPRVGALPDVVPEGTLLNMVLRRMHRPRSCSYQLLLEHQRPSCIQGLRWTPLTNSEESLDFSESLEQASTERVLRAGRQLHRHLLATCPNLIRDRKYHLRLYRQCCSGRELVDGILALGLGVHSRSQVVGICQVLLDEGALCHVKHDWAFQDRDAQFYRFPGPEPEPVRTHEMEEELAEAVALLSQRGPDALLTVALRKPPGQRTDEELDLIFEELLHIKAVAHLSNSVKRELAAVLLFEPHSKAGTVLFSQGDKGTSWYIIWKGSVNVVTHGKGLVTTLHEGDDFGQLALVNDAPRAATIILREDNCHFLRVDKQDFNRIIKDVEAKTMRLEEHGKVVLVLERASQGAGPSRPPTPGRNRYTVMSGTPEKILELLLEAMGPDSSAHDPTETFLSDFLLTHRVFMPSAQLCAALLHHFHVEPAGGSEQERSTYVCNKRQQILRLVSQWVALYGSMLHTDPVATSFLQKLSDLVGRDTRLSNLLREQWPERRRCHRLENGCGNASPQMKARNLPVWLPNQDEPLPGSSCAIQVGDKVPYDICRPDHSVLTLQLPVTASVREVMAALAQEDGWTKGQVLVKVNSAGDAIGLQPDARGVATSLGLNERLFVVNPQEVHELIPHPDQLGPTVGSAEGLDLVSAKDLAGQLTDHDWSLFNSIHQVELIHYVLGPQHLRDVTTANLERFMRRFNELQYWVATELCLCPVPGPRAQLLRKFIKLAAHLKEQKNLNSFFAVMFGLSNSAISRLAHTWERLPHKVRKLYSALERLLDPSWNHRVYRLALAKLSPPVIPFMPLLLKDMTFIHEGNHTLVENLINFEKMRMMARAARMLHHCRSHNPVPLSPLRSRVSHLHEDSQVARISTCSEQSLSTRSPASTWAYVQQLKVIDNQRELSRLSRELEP
# Outline: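 Released BODIPY-GDP fluoresces less than Rap1-bound BODIPY-GDP; the signal is followed at 480/540 nm at 5-min intervals over 30 min, after 5 min at room temperature. Reactions contain 100 nM EPAC1, 250 nM RAP1B-BODIPY-GDP and 50 uM GDP; results are normalized to ATA and DMSO.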
# [5] = target: Rap guanine nucleotide exchange factor 4 (Homo sapiens) (UniProt Q8WZA2); experiment: Confirmatory qHTS for antagonist of cAMP-regulated guanine nucleotide exchange factor 4 (EPAC2) (AID 1645885); also: nearly all actives have a fitted effect of over 25% in size
# Sequence of UniProt Q8WZA2 (Q8WZA2 whole entry, looked up): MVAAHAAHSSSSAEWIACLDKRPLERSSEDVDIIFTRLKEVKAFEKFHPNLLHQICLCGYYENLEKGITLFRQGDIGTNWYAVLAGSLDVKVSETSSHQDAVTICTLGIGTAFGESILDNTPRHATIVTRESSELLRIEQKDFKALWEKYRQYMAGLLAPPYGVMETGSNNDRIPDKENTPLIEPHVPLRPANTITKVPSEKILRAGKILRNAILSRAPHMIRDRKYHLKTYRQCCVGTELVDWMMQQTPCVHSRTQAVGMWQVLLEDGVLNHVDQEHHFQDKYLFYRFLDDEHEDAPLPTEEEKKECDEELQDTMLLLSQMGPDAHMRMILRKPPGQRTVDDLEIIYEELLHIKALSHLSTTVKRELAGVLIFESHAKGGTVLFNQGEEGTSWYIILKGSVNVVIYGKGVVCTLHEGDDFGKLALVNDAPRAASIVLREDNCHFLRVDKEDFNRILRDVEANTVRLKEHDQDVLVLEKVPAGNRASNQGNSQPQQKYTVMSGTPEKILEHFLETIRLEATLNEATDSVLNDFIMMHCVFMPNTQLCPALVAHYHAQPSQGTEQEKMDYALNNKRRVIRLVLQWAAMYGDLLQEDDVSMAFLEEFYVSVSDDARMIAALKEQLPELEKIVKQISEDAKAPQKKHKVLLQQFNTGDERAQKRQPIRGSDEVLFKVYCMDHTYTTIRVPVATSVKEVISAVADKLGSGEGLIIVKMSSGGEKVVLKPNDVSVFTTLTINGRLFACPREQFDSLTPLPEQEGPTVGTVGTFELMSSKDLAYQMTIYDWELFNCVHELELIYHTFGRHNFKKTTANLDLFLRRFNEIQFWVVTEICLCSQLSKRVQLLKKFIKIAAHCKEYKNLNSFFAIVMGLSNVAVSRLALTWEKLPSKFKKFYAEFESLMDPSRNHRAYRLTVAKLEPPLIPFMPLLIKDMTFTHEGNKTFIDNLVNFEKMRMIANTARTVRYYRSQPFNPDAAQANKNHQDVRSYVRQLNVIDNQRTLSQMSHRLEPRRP
# [6] = target: Phospholipid hydroperoxide glutathione peroxidase GPX4 (Homo sapiens) (UniProt P36969); experiment: Primary qHTS Assay for Inhibitors of Recombinant Selenoprotein Glutathione Peroxidase 4 (GPX4) (AID 1845192); also: nearly all actives have a fitted effect of over 65% in size
# Sequence of UniProt P36969 (P36969 whole entry, looked up): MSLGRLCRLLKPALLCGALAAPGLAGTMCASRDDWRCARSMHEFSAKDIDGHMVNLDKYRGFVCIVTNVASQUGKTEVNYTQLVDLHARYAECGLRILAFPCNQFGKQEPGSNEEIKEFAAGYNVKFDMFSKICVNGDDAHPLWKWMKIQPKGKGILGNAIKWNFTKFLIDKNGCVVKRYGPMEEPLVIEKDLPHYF
# Outline: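 qHTS, GR-coupled: GPX4 200 nM + cpd 30 min RT → GSH 1 mM, NADPH 0.5 mM, GR 100 nM → CHP 0.5 mM start; fluor 340/450 at t0 and t15 min; no-enzyme wells as control.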
# [7] = target: Glutathione peroxidase 1 (Homo sapiens) (UniProt P07203); experiment: Primary qHTS Assay for Inhibitors of Recombinant Selenoprotein Glutathione Peroxidase 1 (GPX1) (AID 1845191); also: nearly all actives have a fitted effect of over 65% in size
# Sequence of UniProt P07203 (P07203 whole entry, looked up): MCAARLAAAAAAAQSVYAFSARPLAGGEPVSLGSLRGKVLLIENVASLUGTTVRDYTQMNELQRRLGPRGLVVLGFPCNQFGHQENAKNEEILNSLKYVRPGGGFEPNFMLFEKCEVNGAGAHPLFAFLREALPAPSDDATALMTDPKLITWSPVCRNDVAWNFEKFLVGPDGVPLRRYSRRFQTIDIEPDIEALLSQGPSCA
# Outline: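 GPX1 10 nM, GR 100 nM, GSH 1 mM, NADPH 0.5 mM, CHP 0.5 mM (final). 30-min cpd preincubation, RT. Ex340/Em450 read t=0, t=15 min.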
# Potency is read from the fitted curve at half-maximal effect; tags tell the direction and shape of the fitted curve.
smiles,measurement,setting,value
c1ccc2c(c1)Sc1ccccc1N2CC1CN2CCC1CC2 (stereo unspecified),Potency,[1],"inconclusive: 20 µM [inhibitor, partial curve, poor fit]"
same,Potency,[2],"inconclusive: 33.5 µM [inhibitor, single point]"
same,Potency,[3],"inconclusive: 29.9 µM [inhibitor, single point]"
CC(C)(C)CC(C)(C)c1ccc(O)cc1,Potency,[1],"inconclusive: 35.5 µM [inhibitor, single point]"
same,Potency,[2],"inconclusive: 23.7 µM [inhibitor, single point]"
same,Potency,[3],"inconclusive: 21.7 µM [inhibitor, single point] and inconclusive: 21.1 µM [inhibitor, single point]"
same,Potency,[4],"inconclusive: 39.5 µM [inhibitor, partial curve] and inconclusive: 36.2 µM [inhibitor, full curve]"
same,Potency,[5],active: 49.4 µM and active: 56.9 µM
CC[C@H]1CN2CC[C@H]1C[C@@H]2[C@@H](O)c1ccnc2ccc(OC)cc12,Potency,[1],"inconclusive: 31.6 µM [inhibitor, single point]"
same,Potency,[6],"inconclusive: 5.01 µM [inhibitor, partial curve]"
CC[C@H](C)[C@H]1O[C@]2(C=C[C@@H]1C)C[C@@H]1C[C@@H](C/C=C(\C)[C@@H](O[C@H]3C[C@H](OC)[C@@H](O[C@H]4C[C@H](OC)[C@@H](O)[C@H](C)O4)[C@H](C)O3)[C@@H](C)/C=C/C=C3\CO[C@@H]4[C@H](O)C(C)=C[C@@H](C(=O)O1)[C@]34O)O2,Potency,[1],active: 10 µM
same,Potency,[7],"inconclusive: 2.27 µM [inhibitor, full curve]"
same,Potency,[6],active: 5.01 µM
C#C[C@]1(O)CC[C@H]2[C@@H]3CCC4=CC(=O)CCC4=C3C=C[C@@]21CC,Potency,[1],"inconclusive: 17.8 µM [inhibitor, partial curve]"
same,Potency,[7],"inconclusive: 4.53 µM [inhibitor, full curve]"
same,Potency,[6],active: 10 µM
